# The whole screen tested about 310,000 compounds, of which about 2,200 (0.71%) showed an effect of 50% or more. The effect is printed as a negative number. The list shows a part of the results.
# Molecular target: human ether-à-go-go-related gene (hERG) potassium channel (human, UniProt Q12809)
# Test: primary screen, population patch clamp on CHO cells stably expressing hERG
# human ether-à-go-go-related gene (hERG) potassium channel, sequence (Q12809 whole entry, looked up): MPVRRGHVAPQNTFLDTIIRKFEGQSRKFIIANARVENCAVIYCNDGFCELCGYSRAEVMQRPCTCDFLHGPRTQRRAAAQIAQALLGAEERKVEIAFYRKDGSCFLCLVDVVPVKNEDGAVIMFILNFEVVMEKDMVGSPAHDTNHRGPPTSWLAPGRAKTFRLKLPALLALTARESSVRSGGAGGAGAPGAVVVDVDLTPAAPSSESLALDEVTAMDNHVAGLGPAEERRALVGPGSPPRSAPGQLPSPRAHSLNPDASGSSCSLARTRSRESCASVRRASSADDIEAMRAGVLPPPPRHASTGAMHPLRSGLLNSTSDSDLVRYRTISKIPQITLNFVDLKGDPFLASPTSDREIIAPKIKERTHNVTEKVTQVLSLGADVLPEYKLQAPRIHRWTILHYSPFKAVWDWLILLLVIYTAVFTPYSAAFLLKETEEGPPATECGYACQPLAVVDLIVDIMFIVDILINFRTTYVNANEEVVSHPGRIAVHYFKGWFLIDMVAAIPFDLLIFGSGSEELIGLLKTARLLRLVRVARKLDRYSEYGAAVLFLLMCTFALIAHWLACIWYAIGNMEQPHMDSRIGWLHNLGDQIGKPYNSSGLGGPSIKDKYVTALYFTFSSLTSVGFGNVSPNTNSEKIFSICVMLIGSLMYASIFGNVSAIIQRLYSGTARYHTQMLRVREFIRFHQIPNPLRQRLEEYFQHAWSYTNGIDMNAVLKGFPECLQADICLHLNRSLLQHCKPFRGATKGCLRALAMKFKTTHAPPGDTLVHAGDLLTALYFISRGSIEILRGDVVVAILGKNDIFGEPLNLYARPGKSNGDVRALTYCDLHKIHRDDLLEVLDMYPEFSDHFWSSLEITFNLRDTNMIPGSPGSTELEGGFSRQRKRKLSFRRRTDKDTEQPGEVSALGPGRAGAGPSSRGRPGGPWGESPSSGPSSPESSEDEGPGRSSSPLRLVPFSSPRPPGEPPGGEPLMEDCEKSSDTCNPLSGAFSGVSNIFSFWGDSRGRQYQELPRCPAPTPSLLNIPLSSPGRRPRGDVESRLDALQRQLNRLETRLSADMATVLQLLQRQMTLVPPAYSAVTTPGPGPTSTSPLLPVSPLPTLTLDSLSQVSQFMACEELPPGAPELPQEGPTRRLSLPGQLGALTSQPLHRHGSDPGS
row,SMILES,"hERG current change (%, negative = inhibition) at 1uM [%]"
1,CCN1C(=NCCc2cccnc2)N[C@@H](c2ccccc2)[C@H](C(=O)OC)[C@H]1C,7.53
2,O=C(O)CSc1nc2ccccc2nc1Cc1ccccc1F,13.2
3,CC1(C)N=C(N)N=C(N)N1c1cccc(CN)c1.CCS(=O)(=O)O,17.3
4,COc1cccc(OCc2cc(/C=N/n3cncn3)ccc2OC)c1,8.8
5,CC(C)(C)c1ccc(C(=O)N2CCN(S(=O)(=O)c3ccc(Br)s3)CC2)cc1,10.7
6,O=C(Nc1cccc(OCC(=O)N2CCOCC2)c1)c1cccc([N+](=O)[O-])c1,21.6
7,COc1ccc2c(c1)c1nc3ccccc3nc1n2Cc1ccc(OC)c(OC)c1,15.1
8,COc1ccc(NC(=O)c2cccc(NC3=NC4CS(=O)(=O)CC4S3)c2)cc1Cl (centres unmarked),11.1
9,O=C(c1ccc(Br)o1)N1CCN(c2ncccn2)CC1,7.62
10,COc1ccc(-c2n[nH]c(=S)n2-c2ccccc2C)cc1OC,12.1
11,COc1ccc(CNC(=O)c2cc(=O)c3c(C)cc(C)cc3o2)cc1,3.27
12,O=C(N/N=C/c1ccc(N2CCOCC2)o1)c1cccc([N+](=O)[O-])c1,0.36
13,CCOc1ccc(-c2c(C(=O)N/N=C(\C)c3cccs3)nnn2-c2nonc2N)cc1,11.2
14,CC(C)NC(=O)N1CC(c2ccccc2)C(c2ccc(Cl)cc2)=N1 (centres unmarked),9.88
15,CCOc1ccc(C(CC(=O)O)NC(=O)c2ccco2)cc1 (centres unmarked),3.82
16,O=[N+]([O-])c1ccc(S(=O)(=O)NCCCc2ccccc2)cc1,-3.64
17,CCCCCCSc1ccc([C@H]2N[C@@](CC(C)C)(C(=O)OC)[C@H]3C(=O)N(C)C(=O)[C@@H]23)cc1.O=C(O)C(F)(F)F,12.5
18,Cc1cccc(NC(=O)NNC(=O)c2ccc3ccccc3c2O)c1,15.9
19,Fc1cccc(Cl)c1CNc1ccc(N2CCCC2)cc1,20
20,O=C(NCCN1CCCCC1)c1cc2ccccc2[nH]1,-8.51
21,COc1ccc(N2CCN(C(=O)c3ccc(OCC4CCCO4)cc3)CC2)cc1 (centres unmarked),5.38
22,CC(C)(C)OCC1CO1 (centres unmarked),12.3
23,CCCCCCCCCCCCN1C/C(=C\C(=O)OCC)c2ccccc2S1(=O)=O,10.9

row,SMILES,"hERG current change (%, negative = inhibition) at 1uM [%]"
1,CC12CCC(C(=O)N(CSC(=S)N/N=C\c3ccccc3)C1=O)C2(C)C (centres unmarked),11
2,O=C(O)CCNS(=O)(=O)c1cccc(Br)c1,8.05
3,COc1cc(/C=N/Nc2ccccn2)cc(OC)c1O,6.2
4,COc1ccccc1NC(=O)c1sc2ncn(Cc3ccc(C)cc3)c(=O)c2c1C,10.5
5,CCNC(=S)NNC(=O)c1cc(-c2ccc(OC)cc2)nc2ccccc12,-20.9
6,Cc1ccc(-n2cc(CNCC3CC(=O)N(C4CC4)C3)c(-c3cccc(C)c3)n2)cc1 (centres unmarked),-31
7,COc1ccc(C2Nc3ccccc3NC3=C2C(=O)CC(C)(C)C3)cc1 (centres unmarked),13.9
8,Cc1ccc(C)c(Cn2cnc3c(nnn3-c3ccc(F)cc3)c2=O)c1,-0.0639
9,Cc1nnc(NC(=O)CC(C)c2ccccc2)s1 (centres unmarked),15.8
10,CCN(CC(=O)Nc1c(F)cccc1F)C(=O)CSc1ccc(F)cc1,-2.96
11,CC(C)N1CCN(Cc2cn[nH]c2C2CCCCC2)CC1CCO (centres unmarked),8.99
12,CCOc1ccc(NC(=S)NNC(=O)CC(C)O)cc1 (centres unmarked),25.6
13,CC(=O)Nc1ccc(NC(=O)C(C)c2cccc(C(=O)c3ccccc3)c2)cc1 (centres unmarked),17.1
14,COc1ccc(CNC(=O)c2c([S-])n(-c3ccc(C)cc3)c3cccc[n+]23)cc1,8.04
15,C=CCn1c(SCC(=O)NCc2ccc3c(c2)OCO3)nnc1-c1cccnc1,8.01
16,Cc1cc(OCC(=O)NCCCN2CCOCC2)cc(C)c1Cl,3.6
17,CC(C)(C)NC(=O)C(c1ccccn1)N(C(=O)C1CSC(=O)C1)c1ccc(F)cc1 (centres unmarked),10.4
18,C=CCNc1nc(NCCO)nc(N2CCCC2)n1,10.8
19,COc1ccccc1C(=O)NCCC(=O)N(C)CC(=O)Nc1ccc(N2CCOCC2)cc1,-8.37
20,CCN(CC(=O)NC1CCS(=O)(=O)C1)S(=O)(=O)c1ccc2ccccc2c1 (centres unmarked),2
21,CC(=O)c1cccc(CN2CCN(C3CCCCC3)C(CCO)C2)c1 (centres unmarked),1.26
22,CN(c1cccc(NC(=O)Nc2cccc(Cl)c2)c1)S(C)(=O)=O,3.08
23,CCCC1=C(C(=O)OCC)C(c2ccc(N(C)C)cc2)n2ncnc2N1 (centres unmarked),0.474

row,SMILES,"hERG current change (%, negative = inhibition) at 1uM [%]"
1,O=C(CCCc1c[nH]c2ccccc12)NCCc1c[nH]c2ccccc12,12
2,Cc1cccc(C(=O)Nc2c(C#N)c(C)c(C)n2Cc2ccccc2)c1,11.6
3,CNC(=O)Nc1ccc(C(O)(C(=O)OC)C(F)(F)F)cc1 (centres unmarked),19.6
4,CN(C)c1ccc(CN2CCCCCC2)cc1,13.7
5,CCOc1ccccc1N(C(=O)c1snc(C(N)=O)c1N)C(C(=O)NCCC(C)C)c1ccco1 (centres unmarked),-15.6
6,COC(=O)NC(=C(Cl)Cl)P(=O)(c1ccccc1)c1ccccc1,14.6
7,Cc1cc(Cl)ccc1C(=O)C1CCCN(C(=O)/C=C/c2cnn(C)c2)C1 (centres unmarked),6.5
8,CC(C)CCNC(=O)c1ccc2c(SCC(=O)O)c3c(nc2c1)CCCC3,4.08
9,COc1cccc(C(=O)NCC(=O)OCC(=O)c2ccccc2)c1,9.73
10,CCn1c(/C=C/c2c(C)n(CC)c3ccccc23)nc2ccccc2c1=O,-11.2
11,CC1CN(C(=O)c2ccn(C)n2)CC(C)O1 (centres unmarked),13
12,Cc1nc(-c2cc(-c3nc(-c4ccc(C(F)(F)F)cc4)no3)no2)cs1,-7.99
13,Cc1nc(-c2ccccc2)sc1-c1nc(-c2cccnc2)ncc1S(=O)(=O)c1ccccc1,6.14
14,COc1cccc2cc(C(C)N(CCCN3CCOCC3)C(=S)Nc3cc(C)cc(C)c3)oc12 (centres unmarked),4.98
15,Cc1cccc(CN2CCC(CNC(=O)C3CCCN(S(=O)(=O)c4cnc[nH]4)C3)CC2)c1 (centres unmarked),-6.2
16,Cc1ccc(N(C)S(=O)(=O)c2ccc(-c3cc(C)no3)s2)cc1,6.66
17,CC(=O)c1cc(-c2ccccc2)n(CCC(=O)NC(C)(C)C)c1C,5.53
18,CCCC1(c2ccccc2)NC(=O)N(CC(=O)NCc2ccc(OC)cc2)C1=O (centres unmarked),9.47
19,COc1cccc(C2CC(c3c(-c4ccccc4)c4cc(Cl)ccc4[nH]c3=O)=NN2S(C)(=O)=O)c1OC (centres unmarked),10.2
20,OCCCc1n[nH]c(=S)n1-c1ccccc1,11.4
21,C=CCOc1c2ccc(C(=O)N(CC)c3ccc(OC)cc3)cc2nn1C,16
22,CCS(=O)(=O)N1CCCC(C(=O)NCCCOC)C1 (centres unmarked),16.6
23,CC(=O)Oc1ccc(-c2nc3ccccc3c(=O)o2)cc1,10.3

row,SMILES,"hERG current change (%, negative = inhibition) at 1uM [%]"
1,Cc1ccc(O)c(C(CC(=O)NCc2ccco2)c2ccccc2)c1 (centres unmarked),9.48
2,O=C1c2cccc3cccc(c23)N1Cc1ccc(F)cc1,3
3,Cc1nn(CCC(=O)NNC(=S)Nc2cccc(Cl)c2)c(C)c1[N+](=O)[O-],-1.73
4,CCOc1ccsc1C(=O)OC,14.7
5,Cc1ccc(NS(=O)(=O)c2c(C)[nH]c(=O)[nH]c2=O)cc1C,2.72
6,Cc1c(C=O)c2ccccc2n1Cc1ccc(F)cc1,8.22
7,CC(C)Cc1nnc(NC(=O)c2cc(S(=O)(=O)N(C)C)ccc2N2CCCC2)s1,4.69
8,CCOC(=O)c1c(COC(=O)c2ccco2)nc2ccccc2[n+]1[O-],2.05
9,O=C(Nc1ccc(N2CCOCC2)cc1)C1CCCN(S(=O)(=O)c2cccc(C(F)(F)F)c2)C1 (centres unmarked),11
10,Cc1ccc(S(=O)(=O)Nc2cc(C(F)(F)F)ccc2N2CCOCC2)c(C)c1,8.79
11,CC1CCC(NC(=O)COC(=O)CSc2ccc(C(N)=O)cc2[N+](=O)[O-])CC1 (centres unmarked),14.5
12,CC(C)(C)c1ccc(OCCNC(=O)c2ncn[nH]2)cc1,5.94
13,Cc1ccccc1SCC(=O)Nc1cc(C(F)(F)F)ccc1N1CCOCC1,10.8
14,Cc1ccc2cc(CN(C(=O)c3ccncc3)C(C)C)c(=O)[nH]c2c1,1.84
15,CC(Cc1ccccn1)NC(=O)CCc1nnc(C2CCCCC2)o1 (centres unmarked),11.4
16,N=c1nc(N)nc2n1NC(c1ccc(F)cc1)=CS2,-3.69
17,CCOC(=O)C(C#N)c1ccccn1 (centres unmarked),10.8
18,Cc1oc(-c2ccccc2)cc1C(=O)Nc1cccc(/C=C\C(=O)O)c1,3.96
19,CCOc1cccc(CN2CCN(Cc3ccc(C)o3)C(CCO)C2)c1O (centres unmarked),-0.204
20,CC(=O)Oc1cc2cccc(OC(C)=O)c(=O)c2c(OC(C)=O)c1OC(C)=O,5.64

# — publication PMC4336329 (PLoS ONE, 2015)
